Test results taken from publication PMC4287443.
Results are given in words; binding and its absence hold for the method and conditions named. In cells and extracts the contact can be indirect. Some results given as binding are weak or reduced against the parent protein; the word gives no strength.

The chains behind the UniProt entries cited, without tags or fusion partners.
UniProt P04147: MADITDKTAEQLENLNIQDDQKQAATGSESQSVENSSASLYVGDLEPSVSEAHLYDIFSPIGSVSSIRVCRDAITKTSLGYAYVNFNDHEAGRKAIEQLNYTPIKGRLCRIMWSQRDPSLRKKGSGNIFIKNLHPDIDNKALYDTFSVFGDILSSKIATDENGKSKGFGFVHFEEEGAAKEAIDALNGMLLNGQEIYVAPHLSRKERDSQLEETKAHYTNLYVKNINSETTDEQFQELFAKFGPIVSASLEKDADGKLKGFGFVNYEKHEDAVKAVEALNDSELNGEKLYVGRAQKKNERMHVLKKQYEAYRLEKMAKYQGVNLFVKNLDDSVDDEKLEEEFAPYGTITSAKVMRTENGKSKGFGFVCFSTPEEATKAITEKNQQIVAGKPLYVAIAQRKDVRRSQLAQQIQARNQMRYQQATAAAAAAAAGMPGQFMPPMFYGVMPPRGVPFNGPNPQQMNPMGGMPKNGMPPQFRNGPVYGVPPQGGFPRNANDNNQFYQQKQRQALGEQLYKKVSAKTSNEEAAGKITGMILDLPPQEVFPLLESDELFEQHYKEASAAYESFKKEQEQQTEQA

Columns and labels:
[1] = target: T1, Slf1p-TAP (S. cerevisiae) (UniProt Q12034); assay: co-IP; as the TAP immunoprecipitation, but RNAsin omitted and 200 units of RNAse I added during the 20 minute immunoprecipitation; unstressed cells and cells treated with 0.4 mM hydrogen peroxide for 15 min
T1 sequence: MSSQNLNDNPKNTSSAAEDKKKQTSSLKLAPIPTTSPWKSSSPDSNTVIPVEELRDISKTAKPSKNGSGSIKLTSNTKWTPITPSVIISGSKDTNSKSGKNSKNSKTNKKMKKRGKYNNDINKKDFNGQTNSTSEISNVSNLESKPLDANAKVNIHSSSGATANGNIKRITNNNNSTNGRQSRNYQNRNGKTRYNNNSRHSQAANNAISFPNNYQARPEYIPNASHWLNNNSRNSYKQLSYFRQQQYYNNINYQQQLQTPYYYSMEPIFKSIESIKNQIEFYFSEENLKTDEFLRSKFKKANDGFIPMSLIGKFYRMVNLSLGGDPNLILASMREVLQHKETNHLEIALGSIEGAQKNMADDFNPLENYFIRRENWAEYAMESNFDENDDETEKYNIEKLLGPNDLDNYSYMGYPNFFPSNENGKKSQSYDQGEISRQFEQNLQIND

[2] = target: T2, Sro9p-TAP (S. cerevisiae) (UniProt P25567); assay: as above
T2 sequence: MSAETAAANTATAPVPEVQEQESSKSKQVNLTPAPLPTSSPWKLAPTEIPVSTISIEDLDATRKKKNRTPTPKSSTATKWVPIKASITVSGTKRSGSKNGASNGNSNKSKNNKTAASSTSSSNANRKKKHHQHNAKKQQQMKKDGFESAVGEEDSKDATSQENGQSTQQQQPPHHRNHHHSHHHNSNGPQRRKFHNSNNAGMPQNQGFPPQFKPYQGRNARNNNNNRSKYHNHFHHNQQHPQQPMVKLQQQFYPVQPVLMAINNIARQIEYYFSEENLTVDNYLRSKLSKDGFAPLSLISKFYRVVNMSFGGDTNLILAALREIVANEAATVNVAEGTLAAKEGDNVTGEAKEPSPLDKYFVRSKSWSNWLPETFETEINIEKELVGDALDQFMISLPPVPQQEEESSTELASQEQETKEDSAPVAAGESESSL

[3] = target: T1, Slf1p-TAP (S. cerevisiae); assay: co-IP; TAP-tagged bait captured from cleared yeast lysate on IgG paramagnetic beads, 20 min at 4°C, L buffer (20 mM Tris-HCl pH 8, 140 mM NaCl, 1 mM MgCl2, 0.5% NP40) with RNAsin, five washes, Western blot; unstressed cells and cells treated with 0.4 mM hydrogen peroxide for 15 min
[4] = target: T2, Sro9p-TAP (S. cerevisiae); assay: as above

With Pab1p (from UniProt P04147 1-577) the binding [1] was “binds”, the binding [2] was “binds” and the binding [3] was “binds”. The binding [4] was “binds”.

B1: Rps3p (protein, UniProt P05750 1-240)
chain: MVALISKKRKLVADGVFYAELNEFFTRELAEEGYSGVEVRVTPTKTEVIIRATRTQDVLGENGRRINELTLLVQKRFKYAPGTIVLYAERVQDRGLSAVAQAESMKFKLLNGLAIRRAAYGVVRYVMESGAKGCEVVVSGKLRAARAKAMKFADGFLIHSGQPVNDFIDTATRHVLMRQGVLGIKVKIMRDPAKSRTGPKALPDAVTIIEPKEEEPILAPSVKDYRPAEETEAQAEPVEA
For B1, the binding [1] was “binds”, the binding [2] was “binds” and the binding [3] was “binds”. The binding [4] was “binds”.

B2: Caf20p (protein, UniProt P12962 1-161)
chain: MIKYTIDELFQLKPSLTLEVNFDAVEFRAIIEKVKQLQHLKEEEFNSHHVGHFGRRRSSHHHGRPKIKHNKPKVTTDSDGWCTFEAKKKGSGEDDEEETETTPTSTVPVATIAQETLKVKPNNKNISSNRPADTRDIVADKPILGFNAFAALESEDEDDEA
B2 was tested, and the binding [3] was “no binding”.
